# Measurements as given in the supplement of paper PMC11741623.
# Some of the results follow. Interaction screen of human proteins with wild-type SARS-CoV-2 proteins by split-DHFR complementation in yeast, 1 µg/mL methotrexate. Value = fitness of the pair (three or more lineages) minus that of the viral protein without a human partner, on a scale set by negative (0) and fused positive (1) controls, mean of up to three cultures; higher = more likely to interact. Active = false discovery rate below 0.05 (one-sided t-test) in at least one culture. Nearly all pairs are not hits, and differences among them are mostly noise (correlation between cultures about 0.3); most hits were seen in one culture only. Human sequences are the Swiss-Prot entries looked up by gene name; the clone may be another isoform. NSP2 values were corrected by the authors for a growth advantage. Listed are human proteins with a hit and a random twelfth of the others.
# B1: CCDC43, Q96MW1 (protein)
# chain: MAAPSEVAAIAPGEGDGGGGGFGSWLDGRLEALGVDRAVYGAYILGILQEEEEEEKLDALQGILSAFLEEDSLLNICKEIVERWSETQNVVTKVKKEDEVQAIATLIEKQAQIVVKPRMVSEEEKQRKAALLAQYADVTDEEDEADEKDDSGATTMNIGSDKLLFRNTNVEDVLNARKLERDSLRDESQRKKEQDKLQRERDKLAKQERKEKEKKRTQRGERKR
# B2: SORD, Q00796 (protein)
# chain: MAAAAKPNNLSLVVHGPGDLRLENYPIPEPGPNEVLLRMHSVGICGSDVHYWEYGRIGNFIVKKPMVLGHEASGTVEKVGSSVKHLKPGDRVAIEPGAPRENDEFCKMGRYNLSPSIFFCATPPDDGNLCRFYKHNAAFCYKLPDNVTFEEGALIEPLSVGIHACRRGGVTLGHKVLVCGAGPIGMVTLLVAKAMGAAQVVVTDLSATRLSKAKEIGADLVLQISKESPQEIARKVEGQLGCKPEVTIECTGAEASIQAGIYATRSGGNLVLVGLGSEMTTVPLLHAAIREVDIKGVFRYCNTWPVAISMLASKSVNVKPLVTHRFPLEKALEAFETFKKGLGLKIMLKCDPSDQNP
# B3: BFAR, Q9NZS9 (protein)
# chain: MEEPQKSYVNTMDLERDEPLKSTGPQISVSEFSCHCCYDILVNPTTLNCGHSFCRHCLALWWASSKKTECPECREKWEGFPKVSILLRDAIEKLFPDAIRLRFEDIQQNNDIVQSLAAFQKYGNDQIPLAPNTGRANQQMGGGFFSGVLTALTGVAVVLLVYHWSSRESEHDLLVHKAVAKWTAEEVVLWLEQLGPWASLYRERFLSERVNGRLLLTLTEEEFSKTPYTIENSSHRRAILMELERVKALGVKPPQNLWEYKAVNPGRSLFLLYALKSSPRLSLLYLYLFDYTDTFLPFIHTICPLQEDSSGEDIVTKLLDLKEPTWKQWREFLVKYSFLPYQLIAEFAWDWLEVHYWTSRFLIINAMLLSVLELFSFWRIWSRSELKTVPQRMWSHFWKVSTQGLFVAMFWPLIPQFVCNCLFYWALYFNPIINIDLVVKELRRLETQVL
# B4: POU2AF1, Q16633 (protein)
# chain: MLWQKPTAPEQAPAPARPYQGVRVKEPVKELLRRKRGHASSGAAPAPTAVVLPHQPLATYTTVGPSCLDMEGSVSAVTEEAALCAGWLSQPTPATLQPLAPWTPYTEYVPHEAVSCPYSADMYVQPVCPSYTVVGPSSVLTYASPPLITNVTTRSSATPAVGPPLEGPEHQAPLTYFPWPQPLSTLPTSTLQYQPPAPALPGPQFVQLPISIPEPVLQDMEDPRRAASSLTIDKLLLEEEDSDAYALNHTLSVEGF
# Target: SARS-CoV-2 E
# Experiment: yeast fitness gain over the viral ORF with no human partner (scaled fitness); higher = more likely to interact
# Method: (§1)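 Split mouse DHFR complementation in pooled diploid yeast: human ORFeome clones carry one fragment and viral ORFs the other; barcoded lineages compete in 1 µg/mL methotrexate and fitness is read by barcode sequencing in up to three cultures.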
row,Binder,yeast fitness gain
1,B1,inactive: 0.0127
2,B2,inactive: 0.197
3,B3,inactive: -0.00203
4,B4,inactive: 0.00983

# Target: SARS-CoV-2 M
# Experiment: as above
# Method: as §1
row,Binder,yeast fitness gain
1,B1,inactive: 0.052
2,B2,inactive: -0.0407
3,B3,inactive: 0.257
4,B4,inactive: 0.013

# Target: SARS-CoV-2 NSP1
# Experiment: as above
# Method: as §1
row,Binder,yeast fitness gain
1,B1,inactive: -0.00633
2,B2,inactive: 0.0166
3,B4,inactive: -0.0284

# Target: SARS-CoV-2 NSP10
# Experiment: as above
# Method: as §1
row,Binder,yeast fitness gain
1,B1,inactive: 0.0461
2,B2,inactive: -0.0477
3,B3,inactive: -0.0128
4,B4,inactive: 0.00219

# Target: SARS-CoV-2 NSP12
# Experiment: as above
# Method: as §1
row,Binder,yeast fitness gain
1,B1,inactive: 0.0464
2,B2,inactive: 0.0711
3,B3,inactive: -0.144
4,B4,inactive: -0.026

# Target: SARS-CoV-2 NSP13
# Experiment: as above
# Method: as §1
row,Binder,yeast fitness gain
1,B1,inactive: 0.0354
2,B2,inactive: 0.0376
3,B3,inactive: 0.0276
4,B4,inactive: 0.026

# Target: SARS-CoV-2 NSP14
# Experiment: as above
# Method: as §1
row,Binder,yeast fitness gain
1,B1,inactive: -0.0155
2,B4,inactive: -0.403

# Target: SARS-CoV-2 NSP15
# Experiment: as above
# Method: as §1
row,Binder,yeast fitness gain
1,B1,inactive: 0.109
2,B3,inactive: -0.0761
3,B4,inactive: -0.104

# Target: SARS-CoV-2 NSP16
# Experiment: as above
# Method: as §1
row,Binder,yeast fitness gain
1,B1,inactive: 0.091
2,B2,inactive: -0.12
3,B3,inactive: -0.0451
4,B4,inactive: 0.0583

# Target: SARS-CoV-2 NSP2
# Experiment: as above
# Method: as §1
row,Binder,yeast fitness gain
1,B1,inactive: -0.00409
2,B2,inactive: -0.132
3,B3,inactive: -0.19
4,B4,inactive: -0.0786

# Target: SARS-CoV-2 NSP4
# Experiment: as above
# Method: as §1
row,Binder,yeast fitness gain
1,B1,inactive: 0.0325
2,B3,inactive: -0.0985
3,B4,inactive: -0.101

# Target: SARS-CoV-2 NSP5
# Experiment: as above
# Method: as §1
row,Binder,yeast fitness gain
1,B1,inactive: -0.107
2,B2,inactive: 0.015
3,B3,inactive: -0.125
4,B4,inactive: -0.0511

# Target: SARS-CoV-2 NSP6
# Experiment: as above
# Method: as §1
row,Binder,yeast fitness gain
1,B1,inactive: -0.323
2,B2,inactive: 0.0894
3,B3,inactive: -0.252
4,B4,inactive: 0.0313

# Target: SARS-CoV-2 NSP7
# Experiment: as above
# Method: as §1
row,Binder,yeast fitness gain
1,B1,inactive: 0.0927
2,B2,inactive: 0.0819
3,B3,inactive: -0.0503
4,B4,inactive: 0.0197

# Target: SARS-CoV-2 NSP8
# Experiment: as above
# Method: as §1
row,Binder,yeast fitness gain
1,B1,inactive: -0.0517
2,B2,inactive: 0.0463
3,B3,inactive: 0.0481
4,B4,inactive: 0.0196

# Target: SARS-CoV-2 NSP9
# Experiment: as above
# Method: as §1
row,Binder,yeast fitness gain
1,B1,inactive: 0.0187
2,B2,inactive: 0.056
3,B4,inactive: 0.0462

# Target: SARS-CoV-2 ORF10
# Experiment: as above
# Method: as §1
row,Binder,yeast fitness gain
1,B1,inactive: -0.0827
2,B2,inactive: -0.0872
3,B3,inactive: 0.0631
4,B4,inactive: -0.0265

# Target: SARS-CoV-2 ORF3A
# Experiment: as above
# Method: as §1
row,Binder,yeast fitness gain
1,B1,inactive: -0.00515
2,B2,inactive: 0.0607
3,B3,inactive: -0.0371
4,B4,inactive: 0.0343

# Target: SARS-CoV-2 ORF3B
# Experiment: as above
# Method: as §1
row,Binder,yeast fitness gain
1,B1,inactive: 0.0465
2,B2,inactive: -0.0404
3,B3,inactive: 0.0319
4,B4,inactive: 0.0337

# Target: SARS-CoV-2 ORF6
# Experiment: as above
# Method: as §1
row,Binder,yeast fitness gain
1,B1,inactive: 0.0389
2,B2,inactive: -0.0219
3,B3,inactive: 0.0698
4,B4,inactive: 0.00433

# Target: SARS-CoV-2 ORF7A
# Experiment: as above
# Method: as §1
row,Binder,yeast fitness gain
1,B1,inactive: 0.0516
2,B2,inactive: -0.159
3,B3,inactive: -0.086
4,B4,inactive: 0.00122

# Target: SARS-CoV-2 ORF7B
# Experiment: as above
# Method: as §1
row,Binder,yeast fitness gain
1,B1,inactive: -0.085
2,B2,inactive: 0.00134
3,B3,inactive: 0.00889
4,B4,inactive: 0.0162

# Target: SARS-CoV-2 ORF8
# Experiment: as above
# Method: as §1
row,Binder,yeast fitness gain
1,B1,inactive: -0.0235
2,B2,inactive: 0.0228
3,B3,inactive: 0.0269
4,B4,inactive: 0.0346

# Target: SARS-CoV-2 ORF9B
# Experiment: as above
# Method: as §1
row,Binder,yeast fitness gain
1,B1,inactive: 0.0433
2,B2,inactive: -0.011
3,B3,inactive: -0.176
4,B4,inactive: 0.0216

# Target: SARS-CoV-2 ORF9Bwu (the 73-codon ORF)
# Experiment: as above
# Method: as §1
row,Binder,yeast fitness gain
1,B1,inactive: -0.0354
2,B2,inactive: 0.0235
3,B3,inactive: -0.017
4,B4,inactive: 0.0203

# Target: SARS-CoV-2 S
# Experiment: as above
# Method: as §1
row,Binder,yeast fitness gain
1,B1,inactive: -0.032
2,B2,inactive: 0.0218
3,B3,inactive: 0.0352
4,B4,inactive: 0.0446

# Target: SARS-CoV-2 N
# Experiment: as above
# Method: as §1
row,Binder,yeast fitness gain
1,B4,inactive: -0.0399
